# According to a collection of fitness landscapes (doi:10.1016/j.celrep.2020.107928):
# In all, about 81,000 sequences were measured (“one-hybrid fitness for binding parS DNA”: median about -0.17, highest 2% from about 0.51 on). The list shows a part of the results.
# B1: Caulobacter ParB omega fusion; a variant is named by its letters at X, in order, B8GW30 (parent)
# chain: MESVVVGEPGMSEGRRGLGRGLSALLGEVDAAPAQAPGEQLGGSREAPIEILQRNPDQPRRTFREEDLEDLSNSIREKGVLQPILVRPSPDTAGEYQIVAGERAWRAAQRAGLKTVPIMVRELDDLAVLEIGIIENVQRADLNVLEEALSYKVLMEKFERTQENIAQTIGKSXSHVANXMRLLXLPDEVQSYLVSGELTAXHARAIAAAADPVALAKQIIEGGLSVRETEALARKAPNLSAGKSKGGRPPRVKDTDTQALESDLSSVLGLDVSIDHRGSTGTLTITYATLEQLDDLCNRLTRGI
# Variants of: B1
# Test: one-hybrid fitness for binding parS DNA (scaled: cognate 1, non-cognate 0); higher = stronger binding
# Settings: with parS DNA site
# How it was run: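 Values were rescaled so that cognate is 1 and non-cognate is 0. Each is a fitness, the log change in a variant's read ratio to wild type from Illumina reads of plasmids before and after selection, with three replicate libraries pooled and variants under 10 reads dropped. Selection of the Caulobacter ParB libraries, four specificity codons randomised, used E. coli USO with a HIS3 reporter, site 19 bp from the promoter, on M9-minus-histidine with 0.1 mM IPTG and 5 mM 3-AT for 48 hours at 37°C.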
row,Variant,one-hybrid fitness for binding parS DNA
1,WWMC,≤ 0.2
2,MNYN,≤ 0.2
3,TDEC,≤ 0.2
4,QAVE,≤ 0.2
5,VPRW,≤ 0.2
6,RTQT,0.925
7,FSWE,≤ 0.2
8,QRGA,≤ 0.2
9,IIQC,≤ 0.2
10,PGYL,≤ 0.2
11,RGQG,0.727
12,NYRI,≤ 0.2
13,IYAS,≤ 0.2
14,NGMS,≤ 0.2
15,GPVC,≤ 0.2
16,VHHV,≤ 0.2
17,QNNV,≤ 0.2
18,PQCL,≤ 0.2
19,RNDR,≤ 0.2
20,KMPN,≤ 0.2
21,ALIM,≤ 0.2
22,VYVV,≤ 0.2
23,EPCS,≤ 0.2
24,PNRC,≤ 0.2
25,TTYP,≤ 0.2

row,Variant,one-hybrid fitness for binding parS DNA
1,QPET,≤ 0.2
2,DLWS,≤ 0.2
3,VRQS,≤ 0.2
4,TFTS,≤ 0.2
5,SVYA,≤ 0.2
6,GLKI,≤ 0.2
7,RVMW,0.228
8,DFKR,≤ 0.2
9,NYVH,≤ 0.2
10,RKTE,≤ 0.2
11,AKRR,≤ 0.2
12,VSLA,≤ 0.2
13,LPSY,≤ 0.2
14,MNRG,≤ 0.2
15,RHYI,≤ 0.2
16,SLQP,≤ 0.2
17,LQLF,≤ 0.2
18,NETG,≤ 0.2
19,ELLD,≤ 0.2
20,TCKC,≤ 0.2
21,WHGG,≤ 0.2
22,YVHE,≤ 0.2
23,VLEG,≤ 0.2
24,KLGW,≤ 0.2
25,CMVR,≤ 0.2

row,Variant,one-hybrid fitness for binding parS DNA
1,TWPN,≤ 0.2
2,KCPT,≤ 0.2
3,NINI,≤ 0.2
4,LHSF,≤ 0.2
5,PWAF,≤ 0.2
6,TGSV,≤ 0.2
7,IIRS,≤ 0.2
8,APPE,≤ 0.2
9,FYDR,≤ 0.2
10,RCEG,0.915
11,RHQT,0.853
12,IRIV,≤ 0.2
13,AAAK,≤ 0.2
14,QNKI,≤ 0.2
15,RCEM,0.337
16,WSAW,≤ 0.2
17,ETAT,≤ 0.2
18,KLLH,≤ 0.2
19,KRMN,≤ 0.2
20,AQFS,≤ 0.2
21,NDVS,≤ 0.2
22,LETT,≤ 0.2
23,SSPR,≤ 0.2
24,PNAG,≤ 0.2
25,QIRC,≤ 0.2

row,Variant,one-hybrid fitness for binding parS DNA
1,IVPQ,≤ 0.2
2,MCYC,≤ 0.2
3,ANMS,≤ 0.2
4,ACFT,≤ 0.2
5,AKLT,≤ 0.2
6,ACWD,≤ 0.2
7,LTAI,≤ 0.2
8,LVWG,≤ 0.2
9,KHWK,≤ 0.2
10,REQC,≤ 0.2
11,HQGT,≤ 0.2
12,PKRA,≤ 0.2
13,VHHG,≤ 0.2
14,EMKE,≤ 0.2
15,RHFE,≤ 0.2
16,TQEG,≤ 0.2
17,KKDV,≤ 0.2
18,CIAL,≤ 0.2
19,TYVP,≤ 0.2
20,WHAC,≤ 0.2
21,GSVV,≤ 0.2
22,QTQC,≤ 0.2
23,RSWR,≤ 0.2
24,VKWT,≤ 0.2
25,QRCS,≤ 0.2

row,Variant,one-hybrid fitness for binding parS DNA
1,QQVE,≤ 0.2
2,DLRR,≤ 0.2
3,ISLF,≤ 0.2
4,PHQV,≤ 0.2
5,VCHR,≤ 0.2
6,ETRC,≤ 0.2
7,GSNI,≤ 0.2
8,CAFR,≤ 0.2
9,QWCL,≤ 0.2
10,LTCV,≤ 0.2
11,TVMY,≤ 0.2
12,PLYR,≤ 0.2
13,GVTS,≤ 0.2
14,SCLA,≤ 0.2
15,EGAK,≤ 0.2
16,TLLI,≤ 0.2
17,RHVC,0.773
18,PEES,≤ 0.2
19,HRTL,≤ 0.2
20,EAFV,≤ 0.2
21,TRDL,≤ 0.2
22,NNCC,≤ 0.2
23,APWW,≤ 0.2
24,VVNR,≤ 0.2
25,EWRT,≤ 0.2

row,Variant,one-hybrid fitness for binding parS DNA
1,GATQ,≤ 0.2
2,PKSV,≤ 0.2
3,CFSL,≤ 0.2
4,GYIS,≤ 0.2
5,CFAN,≤ 0.2
6,NIPL,≤ 0.2
7,TPCQ,≤ 0.2
8,NNGS,≤ 0.2
9,REAG,≤ 0.2
10,CVEL,≤ 0.2
11,RDNR,≤ 0.2
12,SRDL,≤ 0.2
13,QIID,≤ 0.2
14,ECTD,≤ 0.2
15,HIPR,≤ 0.2
16,AGHD,≤ 0.2
17,CVHP,≤ 0.2
18,EVMM,≤ 0.2
19,PCTA,≤ 0.2
20,KFRC,≤ 0.2
21,VQLA,≤ 0.2
22,SEPS,≤ 0.2
23,GVGS,≤ 0.2
24,SITG,≤ 0.2
25,VHSN,≤ 0.2

row,Variant,one-hybrid fitness for binding parS DNA
1,QANC,≤ 0.2
2,DALR,≤ 0.2
3,ILYY,≤ 0.2
4,FMPK,≤ 0.2
5,RHGQ,≤ 0.2
6,TPYP,≤ 0.2
7,IKPC,≤ 0.2
8,NLAA,≤ 0.2
9,AHGS,≤ 0.2
10,CDTD,≤ 0.2
11,PTWS,≤ 0.2
12,GTKI,≤ 0.2
13,IHSQ,≤ 0.2
14,NCNF,≤ 0.2
15,WDHS,≤ 0.2
16,EGQA,≤ 0.2
17,YRRY,≤ 0.2
18,RMNM,0.351
19,PRIL,≤ 0.2
20,YIWG,≤ 0.2
21,ELPA,≤ 0.2
22,CTPC,≤ 0.2
23,RRFW,≤ 0.2
24,VRNC,≤ 0.2
25,LFRQ,≤ 0.2

row,Variant,one-hybrid fitness for binding parS DNA
1,AAWG,≤ 0.2
2,LSHI,≤ 0.2
3,MAQY,≤ 0.2
4,RPIF,≤ 0.2
5,QICS,≤ 0.2
6,IRLD,≤ 0.2
7,MHAL,≤ 0.2
8,AMAW,≤ 0.2
9,QEPL,≤ 0.2
10,PEVG,≤ 0.2
11,FTCV,≤ 0.2
12,YVYW,≤ 0.2
13,QSWT,≤ 0.2
14,QIRL,≤ 0.2
15,LRGW,≤ 0.2
16,QGRG,≤ 0.2
17,MYGE,≤ 0.2
18,MPSL,≤ 0.2
19,APVF,≤ 0.2
20,QSTE,≤ 0.2
